Measurements from the supplement of paper PMC8728848.
Some of the results follow.

Columns and labels:
Assay in all cases: glycan array binding signal (z-score within array); higher = stronger binding
Details in all cases: glycan notation: IUPAC condensed, linker removed
[1] = target: Neu5Ac(a2-3)Gal(b1-3)GalNAc(b1-3)Gal(a1-4)Gal(b1-4)Glc
Procedure, shortened: (§1)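 From the Consortium for Functional Glycomics database, 3228 arrays were curated, keeping only those whose protein sequence was available. Binding is given as a within-array Z-score averaged across arrays sharing a protein sequence and across linkers. Negative Z-scores can be read as non-binding.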

[2] = target: Neu5Ac(a2-3)Gal(b1-3)GalNAc(b1-4)[Neu5Ac(a2-3)]Gal(b1-4)Glc
Procedure, shortened: as §1

[3] = target: Neu5Ac(a2-3)Gal(b1-3)GalNAc6S
Procedure, shortened: as §1

[4] = target: Neu5Ac(a2-3)Gal(b1-3)GlcNAc
Procedure, shortened: as §1

[5] = target: Neu5Ac(a2-3)Gal(b1-3)GlcNAc(b1-3)Gal(b1-4)GlcNAc
Procedure, shortened: as §1

[6] = target: Neu5Ac(a2-3)Gal(b1-3)GlcNAc6S
Procedure, shortened: as §1

[7] = target: Neu5Ac(a2-3)Gal(b1-3)[Fuc(a1-4)]GlcNAc
Procedure, shortened: as §1

[8] = target: Neu5Ac(a2-3)Gal(b1-3)[Fuc(a1-4)]GlcNAc(b1-3)Gal(b1-4)[Fuc(a1-3)]GlcNAc
Procedure, shortened: as §1

[9] = target: Neu5Ac(a2-3)Gal(b1-3)[Neu5Ac(a2-3)Gal(b1-4)]GlcNAc
Procedure, shortened: as §1

[10] = target: Neu5Ac(a2-3)Gal(b1-3)[Neu5Ac(a2-6)]GalNAc
Procedure, shortened: as §1

Neu5Ac(a2-3)Gal(b1-4)Glc = target: Neu5Ac(a2-3)Gal(b1-4)Glc
Procedure, shortened: as §1

[11] = target: Neu5Ac(a2-3)Gal(b1-4)GlcNAc
Procedure, shortened: as §1

[12] = target: Neu5Ac(a2-3)Gal(b1-4)GlcNAc(b1-3)Gal(b1-4)GlcNAc
Procedure, shortened: as §1

[13] = target: Neu5Ac(a2-3)Gal(b1-4)GlcNAc(b1-3)Gal(b1-4)GlcNAc(b1-3)Gal(b1-4)GlcNAc
Procedure, shortened: as §1

[14] = target: Neu5Ac(a2-3)Gal(b1-4)GlcNAc(b1-3)Gal(b1-4)[Fuc(a1-3)]GlcNAc
Procedure, shortened: as §1

[15] = target: Neu5Ac(a2-3)Gal(b1-4)GlcNAc6S
Procedure, shortened: as §1

[16] = target: Neu5Ac(a2-3)Gal(b1-4)[Fuc(a1-3)]GlcNAc
Procedure, shortened: as §1

[17] = target: Neu5Ac(a2-3)Gal(b1-4)[Fuc(a1-3)]GlcNAc(b1-3)Gal
Procedure, shortened: as §1

[18] = target: Neu5Ac(a2-3)Gal(b1-4)[Fuc(a1-3)]GlcNAc(b1-3)Gal(b1-4)GlcNAc
Procedure, shortened: as §1

[19] = target: Neu5Ac(a2-3)Gal(b1-4)[Fuc(a1-3)]GlcNAc(b1-3)Gal(b1-4)[Fuc(a1-3)]GlcNAc(b1-3)Gal(b1-4)[Fuc(a1-3)]GlcNAc
Procedure, shortened: as §1

[20] = target: Neu5Ac(a2-3)Gal(b1-4)[Fuc(a1-3)]GlcNAc6S
Procedure, shortened: as §1

[21] = target: Neu5Ac(a2-3)Gal6S(b1-4)GlcNAc
Procedure, shortened: as §1

[22] = target: Neu5Ac(a2-3)Gal6S(b1-4)[Fuc(a1-3)]GlcNAc
Procedure, shortened: as §1

Neu5Ac(a2-3)GalNAc = target: Neu5Ac(a2-3)GalNAc
Procedure, shortened: as §1

[23] = target: Neu5Ac(a2-3)GalNAc(b1-4)GlcNAc
Procedure, shortened: as §1

[24] = target: Neu5Ac(a2-3)[GalNAc(b1-4)]Gal(b1-4)Glc
Procedure, shortened: as §1

[25] = target: Neu5Ac(a2-3)[GalNAc(b1-4)]Gal(b1-4)GlcNAc
Procedure, shortened: as §1

[26] = target: Neu5Ac(a2-3)[Neu5Ac(a2-6)]GalNAc
Procedure, shortened: as §1

[27] = target: Neu5Ac(a2-6)Gal(b1-4)GlcNAc
Procedure, shortened: as §1

[28] = target: Neu5Ac(a2-6)Gal(b1-4)GlcNAc(b1-2)Man(a1-3)[Neu5Ac(a2-6)Gal(b1-4)GlcNAc(b1-2)Man(a1-6)]Man(b1-4)GlcNAc(b1-4)GlcNAc
Procedure, shortened: as §1

[29] = target: Neu5Ac(a2-6)Gal(b1-4)GlcNAc(b1-3)Gal(b1-4)GlcNAc
Procedure, shortened: as §1

[30] = target: Neu5Ac(a2-6)Gal(b1-4)GlcNAc(b1-3)Gal(b1-4)[Fuc(a1-3)]GlcNAc(b1-3)Gal(b1-4)[Fuc(a1-3)]GlcNAc
Procedure, shortened: as §1

[31] = target: Neu5Ac(a2-6)Gal(b1-4)GlcNAc6S
Procedure, shortened: as §1

Neu5Ac(a2-6)GalNAc = target: Neu5Ac(a2-6)GalNAc
Procedure, shortened: as §1

[32] = target: Neu5Ac(a2-6)GalNAc(b1-4)GlcNAc
Procedure, shortened: as §1

Neu5Ac(a2-8)Neu5Ac = target: Neu5Ac(a2-8)Neu5Ac
Procedure, shortened: as §1

[33] = target: Neu5Ac(a2-8)Neu5Ac(a2-3)Gal(b1-4)Glc
Procedure, shortened: as §1

[34] = target: Neu5Ac(a2-8)Neu5Ac(a2-3)[GalNAc(b1-4)]Gal(b1-4)Glc
Procedure, shortened: as §1

[35] = target: Neu5Ac(a2-8)Neu5Ac(a2-8)Neu5Ac
Procedure, shortened: as §1

[36] = target: Neu5Ac(a2-8)Neu5Ac(a2-8)Neu5Ac(a2-3)Gal(b1-4)Glc
Procedure, shortened: as §1

[37] = target: Neu5Ac(a2-8)Neu5Ac(a2-8)Neu5Ac(a2-3)[GalNAc(b1-4)]Gal(b1-4)Glc
Procedure, shortened: as §1

[38] = target: Neu5Ac(a2-8)Neu5Ac(a2-8)Neu5Ac(a2-8)Neu5Ac(a2-3)[GalNAc(b1-4)]Gal(b1-4)Glc
Procedure, shortened: as §1

[39] = target: Neu5Ac9Ac(a2-6)Gal(b1-4)GlcNAc
Procedure, shortened: as §1

[40] = target: Neu5Gc(a2-3)Gal(b1-3)GlcNAc
Procedure, shortened: as §1

[41] = target: Neu5Gc(a2-3)Gal(b1-3)[Fuc(a1-4)]GlcNAc
Procedure, shortened: as §1

Neu5Gc(a2-3)Gal(b1-4)Glc = target: Neu5Gc(a2-3)Gal(b1-4)Glc
Procedure, shortened: as §1

[42] = target: Neu5Gc(a2-3)Gal(b1-4)GlcNAc
Procedure, shortened: as §1

[43] = target: Neu5Gc(a2-3)Gal(b1-4)[Fuc(a1-4)]GlcNAc
Procedure, shortened: as §1

[44] = target: Neu5Gc(a2-6)Gal(b1-4)GlcNAc
Procedure, shortened: as §1

Neu5Gc(a2-6)GalNAc = target: Neu5Gc(a2-6)GalNAc
Procedure, shortened: as §1

B1: 7WC (Trifolium repens) (protein)
chain: MGTITSYAVVFDAGSTGSRVHVYHFDQNLDLLHIGKDVEFYNKIQPGLSAYADNPEQAAKSLIPLLEQAENVVPEDFHSKTPIRLGATAGLRLLDGDASERILQAVRDMLNNKSTFNVQPDAVSIIDGTQEGSYLWVTINYVLGNLGKRFTNTVGVIDLGGGSVQMAYAVSKKTARNAPKVTDGEDPYIKKIVLKGKPYDLYVHSYLHFGREASRAEILKVTHGSASPCILAGFDGIYTYSGEEFKASAPTSGANFDKCKKIIQKALKLDYPCPYQNCTFGGIWNGGGGSGQKKLFAASSFFYLPQDVGMVDPNKSNLKLRPVDLENKAKIVCTLNVEDVKSAYPLLEKFNIVPYACMDLIYQYELLVDGFGLDPLQEITAGEKIEYQEALVDAAWALGNAVEAVLLLPKFERLMYFVVEHHHHHH
[1]
  glycan array binding signal (z-score): -0.388
[2]
  glycan array binding signal (z-score): -0.537
[3]
  glycan array binding signal (z-score): -0.543
[4]
  glycan array binding signal (z-score): -0.438
[5]
  glycan array binding signal (z-score): -0.525
[6]
  glycan array binding signal (z-score): -0.354
[7]
  glycan array binding signal (z-score): -0.496
[8]
  glycan array binding signal (z-score): 4.17
[9]
  glycan array binding signal (z-score): -0.542
[10]
  glycan array binding signal (z-score): -0.537
Neu5Ac(a2-3)Gal(b1-4)Glc
  glycan array binding signal (z-score): -0.107
[11]
  glycan array binding signal (z-score): -0.545
[12]
  glycan array binding signal (z-score): -0.301
[13]
  glycan array binding signal (z-score): -0.486
[14]
  glycan array binding signal (z-score): -0.305
[15]
  glycan array binding signal (z-score): -0.474
[16]
  glycan array binding signal (z-score): -0.477
[17]
  glycan array binding signal (z-score): -0.548
[18]
  glycan array binding signal (z-score): -0.241
[19]
  glycan array binding signal (z-score): 2.57
[20]
  glycan array binding signal (z-score): -0.541
[21]
  glycan array binding signal (z-score): -0.463
[22]
  glycan array binding signal (z-score): -0.54
Neu5Ac(a2-3)GalNAc
  glycan array binding signal (z-score): -0.224
[23]
  glycan array binding signal (z-score): -0.32
[24]
  glycan array binding signal (z-score): -0.564
[25]
  glycan array binding signal (z-score): -0.316
[26]
  glycan array binding signal (z-score): -0.542
[27]
  glycan array binding signal (z-score): -0.295
[28]
  glycan array binding signal (z-score): -0.511
[29]
  glycan array binding signal (z-score): -0.502
[30]
  glycan array binding signal (z-score): -0.29
[31]
  glycan array binding signal (z-score): -0.46
Neu5Ac(a2-6)GalNAc
  glycan array binding signal (z-score): -0.153
[32]
  glycan array binding signal (z-score): -0.274
Neu5Ac(a2-8)Neu5Ac
  glycan array binding signal (z-score): -0.489
[33]
  glycan array binding signal (z-score): -0.511
[34]
  glycan array binding signal (z-score): -0.463
[35]
  glycan array binding signal (z-score): -0.529
[36]
  glycan array binding signal (z-score): -0.355
[37]
  glycan array binding signal (z-score): -0.48
[38]
  glycan array binding signal (z-score): -0.429
[39]
  glycan array binding signal (z-score): -0.491
[40]
  glycan array binding signal (z-score): -0.48
[41]
  glycan array binding signal (z-score): -0.369
Neu5Gc(a2-3)Gal(b1-4)Glc
  glycan array binding signal (z-score): -0.385
[42]
  glycan array binding signal (z-score): -0.512
[43]
  glycan array binding signal (z-score): -0.456
[44]
  glycan array binding signal (z-score): -0.476
Neu5Gc(a2-6)GalNAc
  glycan array binding signal (z-score): -0.16
